# From the supplement of paper PMC9446081
# Hit rate of the full screen: of about 39,000 compounds, about 220 (0.56%) showed activity. This is one part of the list.
# Test system: Escherichia coli K-12 BW25113
# Assay: relative growth (OD600 normalised to plate interquartile mean) (fraction); higher = less growth inhibition, active = 0.2 or less
# Conditions: 50 µM; LB; incubation time: overnight (16-24 h)
# 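Further: static incubation at 37 °C against the wild-type strain, values averaged over two biological replicates.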
row,SMILES,relative growth
1,C[C@@H]1CN([C@H](C)CO)C(=O)c2cc(NC(=O)Nc3cccc4ccccc34)ccc2O[C@@H]1CN(C)Cc1ccc(C(F)(F)F)cc1,inactive: 1.02
2,COc1ccc(NC(=O)N(C)C[C@H]2OCCCC[C@@H](C)Oc3ccc(NC(=O)c4ccncc4)cc3C(=O)N([C@H](C)CO)C[C@H]2C)cc1,inactive: 0.984
3,C[C@@H]1CN([C@@H](C)CO)C(=O)c2cc(NS(=O)(=O)c3cccs3)ccc2O[C@H]1CN(C)S(C)(=O)=O,inactive: 0.987
4,CN1C(=O)c2cc(NC(=O)c3cccs3)ccc2OC[C@@H]2O[C@@H](CC(=O)NCCN3CCCCC3)CC[C@H]21,inactive: 1.02
5,CC(C)NC(=O)Nc1ccc2c(c1)C(=O)N([C@@H](C)CO)C[C@@H](C)[C@H](CN(C)Cc1ccc(C(F)(F)F)cc1)OCCCC[C@@H](C)O2,inactive: 1.02
6,C[C@@H]1CN([C@@H](C)CO)C(=O)c2cc(C#CC3(O)CCCC3)cnc2O[C@@H]1CN(C)C(=O)Cc1ccccc1,inactive: 0.998
7,Cc1noc(C)c1S(=O)(=O)Nc1ccc2c(c1)CC(=O)N([C@H](C)CO)C[C@@H](C)[C@@H](CN(C)S(=O)(=O)c1cccs1)O2,inactive: 0.988
8,CCCN(C)C[C@@H]1OCCCC[C@@H](C)Oc2ccc(NS(=O)(=O)c3cn(C)cn3)cc2C(=O)N([C@H](C)CO)C[C@@H]1C,inactive: 0.984
9,C[C@@H]1CCCCO[C@H](CN(C)C(=O)Cc2ccccc2)[C@H](C)CN([C@H](C)CO)C(=O)c2cc(NC(=O)Nc3ccc(F)cc3)ccc2O1,inactive: 1.02
10,COc1ccccc1-c1cc(=O)c2c(OC)cccc2o1,inactive: 0.774
11,C[C@@H]1CN([C@H](C)CO)C(=O)CCCn2cc(nn2)CO[C@@H]1CN(C)S(=O)(=O)c1ccccc1C#N,inactive: 1
12,CNC[C@@H]1OCCCC[C@H](C)Oc2ccc(NS(=O)(=O)c3cn(C)cn3)cc2C(=O)N([C@H](C)CO)C[C@@H]1C,inactive: 0.959
13,CC=Cc1ccc2n(c1=O)C[C@@H]1[C@@H](CO)[C@H](C(=O)NCC3CC3)[C@H]2N1S(=O)(=O)c1cn(C)cn1,inactive: 0.974
14,C[C@@H]1CN([C@@H](C)CO)C(=O)c2cc(NC(=O)c3ccncc3)ccc2O[C@@H]1CN(C)S(=O)(=O)c1cn(C)cn1,inactive: 1.01
15,Cc1noc(C)c1NC(=O)Nc1ccc2c(c1)C(=O)N([C@H](C)CO)C[C@H](C)[C@@H](CN(C)C(=O)C1CCCCC1)OCCCC[C@@H](C)O2,inactive: 1.02
16,C[C@]12C=CC(=O)C=C1CC[C@@H]1[C@@H]2[C@@H](O)C[C@@]2(C)[C@H]1CC[C@]2(O)C(=O)COC(=O)c1ccc(CO[N+](=O)[O-])cc1,inactive: 0.952
17,C[C@@H]1CN([C@H](C)CO)C(=O)c2cc(NC(=O)CCC(F)(F)F)ccc2O[C@@H]1CN(C)Cc1ccc(Oc2ccccc2)cc1,inactive: 0.999
18,CO[C@H]1CN(C)C(=O)c2cc(NC(=O)C3CC3)ccc2OC[C@@H](C)N(C(=O)C2CCOCC2)C[C@@H]1C,inactive: 1.02
19,Cc1ccc(C(=O)Nc2ccc(S(=O)(=O)[O-])c3cc(S(=O)(=O)[O-])cc(S(=O)(=O)[O-])c23)cc1NC(=O)c1cccc(NC(=O)Nc2cccc(C(=O)Nc3cc(C(=O)Nc4ccc(S(=O)(=O)[O-])c5cc(S(=O)(=O)[O-])cc(S(=O)(=O)[O-])c45)ccc3C)c2)c1.[Na+].[Na+].[Na+].[Na+].[Na+].[Na+],inactive: 0.992

row,SMILES,relative growth
1,C[C@H]1CCCCO[C@@H](CN(C)C(=O)C2CCCCC2)[C@@H](C)CN([C@@H](C)CO)C(=O)c2cc(NC(=O)CCC(F)(F)F)ccc2O1,inactive: 0.965
2,CCCN(C)C[C@@H]1OCCCC[C@@H](C)Oc2ccc(NC(=O)Nc3ccccc3)cc2C(=O)N([C@H](C)CO)C[C@@H]1C,inactive: 1.01
3,COc1ccc(S(=O)(=O)Nc2ccc3c(c2)C(=O)N([C@@H](C)CO)C[C@H](C)[C@H](CN(C)Cc2ccc(Cl)c(Cl)c2)O3)cc1,inactive: 1.02
4,C[C@H]1CN([C@@H](C)CO)S(=O)(=O)c2ccc(Br)cc2O[C@@H]1CN(C)C(=O)C1CCCCC1,inactive: 1
5,O.O=C(O)C1C(O)CCC2CN3CCc4c([nH]c5ccccc45)C3CC21 (stereo unspecified),inactive: 0.889
6,CC(=O)N(CC(O)CO)c1c(I)c(C(=O)NCCO)c(I)c(C(=O)NCC(O)CO)c1I (stereo unspecified),inactive: 1.01
7,COc1ccc(S(=O)(=O)N(C)C[C@H]2OCCCC[C@H](C)Oc3ccc(NC(=O)CCC(F)(F)F)cc3C(=O)N([C@@H](C)CO)C[C@H]2C)cc1,inactive: 1
8,C[C@@H]1CCCCO[C@H](CN(C)C(=O)Nc2cccc3ccccc23)[C@@H](C)CN([C@H](C)CO)C(=O)c2cc(NC(=O)CCC(F)(F)F)ccc2O1,inactive: 1
9,CCC(=O)NNC(=O)c1cccc(O)c1,inactive: 0.9
10,Cc1onc(-c2ccccc2Cl)c1C(=O)NC1C(=O)N2C1SC(C)(C)C2C(=O)[O-].[Na+] (stereo unspecified),inactive: 1.04
11,C[C@H](CO)N1C[C@H](C)[C@H](CN(C)C(=O)Cc2ccccn2)Oc2cc(C#Cc3ccccc3)ccc2S1(=O)=O,inactive: 0.999
12,Cn1cnc(S(=O)(=O)N[C@H]2CC[C@H](CC(=O)NCC3CC3)O[C@@H]2CO)c1,inactive: 0.976
13,O=C(C[C@@H]1CC[C@@H]2[C@H](COC[C@H](O)CN2S(=O)(=O)c2ccc(Cl)cc2)O1)NCc1ccncn1,inactive: 1.01
14,COc1ccc(S(=O)(=O)N[C@@H]2CC[C@H](CC(=O)N3CCN(c4ccccc4)CC3)O[C@H]2CO)cc1,inactive: 0.993
15,C[C@H]1CN([C@@H](C)CO)C(=O)c2cc(NS(C)(=O)=O)ccc2O[C@H]1CN(C)Cc1ccc(C(=O)O)cc1,inactive: 1.02
16,CCS(=O)(=O)Nc1ccc2c(c1)C(=O)N(C)[C@@H]1CC[C@H](CC(=O)N[C@@H]3CCN(Cc4ccccc4)C3)O[C@@H]1CO2,inactive: 1.02
17,CC(C)NC(=O)Nc1ccc2c(c1)C(=O)N([C@@H](C)CO)C[C@@H](C)[C@@H](CN(C)C(=O)Nc1ccccc1)OCCCC[C@H](C)O2,inactive: 0.894
18,C[C@@H]1CCCCO[C@H](CN(C)S(=O)(=O)c2ccc(Cl)cc2)[C@H](C)CN([C@@H](C)CO)C(=O)c2cc(NC(=O)Nc3ccc(F)cc3)ccc2O1,inactive: 1.03
19,COc1ccc2c3c([nH]c2c1)[C@@H](CO)N(C[C@]13CN(C)C1)C(=O)CN1CCOCC1,inactive: 1.03

row,SMILES,relative growth
1,O=C(C[C@H]1C=C[C@H](NS(=O)(=O)c2ccc(F)cc2)[C@@H](CO)O1)NCc1ccc(Cl)c(Cl)c1,inactive: 0.995
2,CC(C)NC(=O)N(C)C[C@H]1Oc2ccc(NC(=O)C3CCCCC3)cc2CC(=O)N([C@H](C)CO)C[C@H]1C,inactive: 0.997
3,C[C@@H]1CN([C@H](C)CO)C(=O)c2cc(NC(=O)Cc3ccccc3)ccc2O[C@@H]1CN(C)C(=O)Nc1ccc(C(F)(F)F)cc1,inactive: 0.986
4,C[C@@H]1CN([C@H](C)CO)C(=O)Cc2cc(NC(=O)C3CC3)ccc2O[C@H]1CN(C)C(=O)Nc1ccccc1,inactive: 1.01
5,C[C@@H]1CCCCO[C@@H](CN(C)S(C)(=O)=O)[C@@H](C)CN([C@@H](C)CO)C(=O)c2cc(N(C)C)ccc2O1,inactive: 1
6,Cc1ccc(S(=O)(=O)N2C[C@@H](O)COC[C@H]3O[C@H](CC(=O)N[C@H]4CCN(Cc5ccccc5)C4)CC[C@@H]32)cc1,inactive: 1.01
7,C[C@H](CO)N1C[C@H](C)[C@H](CN(C)Cc2ccc(-c3ccccc3)cc2)Oc2ccc(NC(=O)Cn3cnnn3)cc2C1=O,inactive: 0.997
8,Cc1ccc(S(=O)(=O)N(C)C[C@H]2OCCCC[C@@H](C)Oc3ccc(NC(=O)CCC(F)(F)F)cc3C(=O)N([C@H](C)CO)C[C@H]2C)cc1,inactive: 0.968
9,COc1ccc([Si](C)(C)[C@H]2[C@H](CCO)O[C@@]3(C(=O)N(Cc4cccc(N5C(=O)c6ccccc6Oc6ccccc65)c4)c4ccccc43)[C@@H]2C)cc1,inactive: 1.04
10,C[C@@H]1CCCCO[C@H](CN(C)C(=O)Nc2ccc3c(c2)OCO3)[C@H](C)CN([C@H](C)CO)C(=O)c2cc(NC(=O)Cc3ccccc3)ccc2O1,inactive: 1
11,C[C@@H]1CN([C@H](C)CO)C(=O)c2cccc(NC(=O)c3nc4ccccc4s3)c2O[C@@H]1CN(C)CC1CCCCC1,inactive: 1.01
12,CO[C@@H]1CN(C)C(=O)c2ccc(NC(C)=O)cc2OC[C@@H](C)N(S(=O)(=O)c2cn(C)cn2)C[C@H]1C,inactive: 0.958
13,C[C@@H]1CN([C@@H](C)CO)C(=O)c2cc(NC(=O)Nc3ccccc3)ccc2O[C@@H](C)CCCCO[C@@H]1CN(C)C(=O)Nc1cccc2ccccc12,inactive: 1.05
14,C[C@H]1CN([C@@H](C)CO)C(=O)c2cc(-c3ccc(C(=O)N(C)C)cc3)cnc2O[C@H]1CN(C)C(=O)CN(C)C,inactive: 0.974
15,CC(C)(C)[S@](=O)N1Cc2cc(C(=O)N3CCc4ccccc4C3)nc(-c3cccc(-c4cccnc4)c3)c2[C@@H]1CCO,inactive: 1.03
16,C[C@@H]1CN([C@H](C)CO)C(=O)c2cc(NC(=O)Nc3cccc4ccccc34)ccc2O[C@@H](C)CCCCO[C@@H]1CN(C)S(=O)(=O)c1ccc(Cl)cc1,inactive: 1.05
17,C[C@H]1CN([C@@H](C)CO)C(=O)CCCn2nncc2CO[C@@H]1CN(C)C(=O)Nc1ccc(N2CCN(C)CC2)cc1,inactive: 1.02
18,C[C@@H]1CN([C@H](C)CO)C(=O)c2cc(NS(=O)(=O)c3ccc(F)cc3)ccc2O[C@@H]1CN(C)S(=O)(=O)c1cccs1,inactive: 1.01
